Laboratory results published in article PMC5853588.
No constants are given. Whether binding was seen depends on the method and setting. For part of these data: Binding seen in cells or lysates may run through a third protein. Some entries that bind do so weakly or less than the wild type. Where a sequence is shown, tags or fusion partners need not be part of it.

T1: ORRM3, predicted mature coding sequence, fused to the AD or BD domain (Arabidopsis) (UniProt Q9FNR1)
T1 sequence: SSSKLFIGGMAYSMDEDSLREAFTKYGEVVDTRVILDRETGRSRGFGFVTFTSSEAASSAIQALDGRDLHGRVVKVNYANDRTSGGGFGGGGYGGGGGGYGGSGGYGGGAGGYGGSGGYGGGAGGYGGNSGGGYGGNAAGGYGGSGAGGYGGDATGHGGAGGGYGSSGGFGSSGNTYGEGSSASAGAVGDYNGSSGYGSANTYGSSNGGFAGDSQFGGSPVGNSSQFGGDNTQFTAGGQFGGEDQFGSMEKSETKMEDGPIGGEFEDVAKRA

T2: ORRM4, predicted mature coding sequence, fused to the AD or BD domain (Arabidopsis) (UniProt Q9C909)
T2 sequence: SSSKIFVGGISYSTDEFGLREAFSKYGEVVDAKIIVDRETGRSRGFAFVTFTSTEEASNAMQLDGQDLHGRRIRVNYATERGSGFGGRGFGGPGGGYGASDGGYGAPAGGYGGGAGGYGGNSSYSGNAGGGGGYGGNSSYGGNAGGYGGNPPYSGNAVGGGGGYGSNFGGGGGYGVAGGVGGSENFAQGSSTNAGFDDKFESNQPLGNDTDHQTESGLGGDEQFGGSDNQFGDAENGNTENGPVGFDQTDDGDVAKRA

T3: RIP1, predicted mature coding sequence, fused to the AD or BD domain (Arabidopsis) (UniProt Q9LKA5)
T3 sequence: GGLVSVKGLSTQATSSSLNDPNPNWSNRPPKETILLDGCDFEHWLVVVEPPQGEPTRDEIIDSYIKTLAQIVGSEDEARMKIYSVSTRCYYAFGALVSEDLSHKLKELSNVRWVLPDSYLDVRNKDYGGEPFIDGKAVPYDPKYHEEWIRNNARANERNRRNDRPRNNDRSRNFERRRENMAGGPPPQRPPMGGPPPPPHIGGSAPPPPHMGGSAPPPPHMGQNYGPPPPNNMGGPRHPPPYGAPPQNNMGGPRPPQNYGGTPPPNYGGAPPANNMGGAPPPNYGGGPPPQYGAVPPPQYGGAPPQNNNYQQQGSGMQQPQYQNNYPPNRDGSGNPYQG

T4: ORRM4 fused to the N-terminal half of GFP (Arabidopsis) (UniProt Q9C909)
T4 sequence: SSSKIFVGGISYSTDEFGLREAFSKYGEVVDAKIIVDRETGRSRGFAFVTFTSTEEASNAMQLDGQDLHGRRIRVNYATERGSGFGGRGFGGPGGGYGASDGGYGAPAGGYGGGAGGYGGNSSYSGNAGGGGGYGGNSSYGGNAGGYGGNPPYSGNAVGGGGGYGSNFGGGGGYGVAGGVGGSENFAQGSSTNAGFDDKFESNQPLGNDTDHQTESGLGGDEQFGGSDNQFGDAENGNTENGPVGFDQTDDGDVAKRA

T5: RIP1 (RNA-editing factor Interacting Protein 1) fused to the N-terminal half of GFP (Arabidopsis) (UniProt Q9LKA5)
T5 sequence: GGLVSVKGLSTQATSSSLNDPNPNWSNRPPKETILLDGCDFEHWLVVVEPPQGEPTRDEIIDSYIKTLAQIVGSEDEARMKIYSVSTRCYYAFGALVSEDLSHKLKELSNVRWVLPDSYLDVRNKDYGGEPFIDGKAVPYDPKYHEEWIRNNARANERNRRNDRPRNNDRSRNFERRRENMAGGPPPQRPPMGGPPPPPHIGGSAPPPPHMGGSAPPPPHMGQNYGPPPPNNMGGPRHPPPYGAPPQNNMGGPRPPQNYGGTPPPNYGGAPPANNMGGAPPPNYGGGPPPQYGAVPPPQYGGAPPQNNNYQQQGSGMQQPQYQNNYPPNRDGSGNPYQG

T6: ORRM2 fused to the N-terminal half of GFP (Arabidopsis) (UniProt Q9FIU6)
T6 sequence: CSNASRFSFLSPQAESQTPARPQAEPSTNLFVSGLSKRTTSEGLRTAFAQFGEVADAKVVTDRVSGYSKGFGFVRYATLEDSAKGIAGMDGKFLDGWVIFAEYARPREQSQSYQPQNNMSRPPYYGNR

T7: ORRM3 fused to the N-terminal half of GFP (Arabidopsis) (UniProt Q9FNR1)
T7 sequence: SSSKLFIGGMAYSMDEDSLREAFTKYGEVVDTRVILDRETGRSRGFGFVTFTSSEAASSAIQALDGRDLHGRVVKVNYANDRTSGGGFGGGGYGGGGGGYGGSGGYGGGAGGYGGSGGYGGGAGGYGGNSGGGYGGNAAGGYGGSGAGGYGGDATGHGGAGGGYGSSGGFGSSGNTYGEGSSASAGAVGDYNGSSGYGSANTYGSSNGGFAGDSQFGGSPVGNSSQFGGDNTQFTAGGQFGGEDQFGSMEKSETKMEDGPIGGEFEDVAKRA


Legend:
[1] = molecular target: T1, ORRM3, predicted mature coding sequence, fused to the AD or BD domain (Arabidopsis); experiment: two-hybrid; yeast PJ69-4 a and alpha mated; AD and BD fusions of predicted mature proteins; 10 ul of 1 x 10^6 and 1 x 10^5 cells ml^-1 spotted on leucine-, tryptophan-, adenine- and histidine-dropout plates; read 2 d to 5 d after spotting; empty vectors as controls for auto-activation
[2] = molecular target: T2, ORRM4, predicted mature coding sequence, fused to the AD or BD domain (Arabidopsis); experiment: as above
[3] = molecular target: T3, RIP1, predicted mature coding sequence, fused to the AD or BD domain (Arabidopsis); experiment: as above
[4] = molecular target: ORRM5 with its predicted transit peptide removed, fused to the AD or BD domain (Arabidopsis) (UniProt Q9SVM8); experiment: as above
[5] = molecular target: T4, ORRM4 fused to the N-terminal half of GFP (Arabidopsis); experiment: split reporter; BiFC in Nicotiana benthamiana: transient coexpression of one protein fused to GFP^N with another fused to GFP^C by Agrobacterium infiltration; confocal imaging; ORRM5-GFP^C in all panels
[6] = molecular target: T5, RIP1 (RNA-editing factor Interacting Protein 1) fused to the N-terminal half of GFP (Arabidopsis); experiment: as above
[7] = molecular target: T6, ORRM2 fused to the N-terminal half of GFP (Arabidopsis); experiment: as above
[8] = molecular target: organelle RNA recognition motif-containing protein 5 (ORRM5) fused to the C-terminal half of GFP (Arabidopsis) (UniProt Q9SVM8); experiment: as above
[9] = molecular target: T7, ORRM3 fused to the N-terminal half of GFP (Arabidopsis); experiment: as above

| binding [1] | binding [2] | binding [3] | binding [4] | binding [5] | binding [6] | binding [7] | binding [8] | binding [9] | Binder |
| --- | --- | --- | --- | --- | --- | --- | --- | --- | --- |
| binds | binds | no binding | no binding | – | – | – | – | – | ORRM5 with its predicted transit peptide removed, fused to the AD or BD domain (protein, UniProt Q9SVM8 33-158) MSTKLFIGGLSWGTDDASLRDAFAHFGDVVDAKVIVDRETGRSRGFGFVNFNDEGAATAAISEMDGKELNGRHIRVNPANDRPSAPRAYGGGGGYSGGGGGYGGGGGGYGGGGGGYGGGGDGGGGF |
| – | – | – | – | binds | no binding | binds | no binding | binds | organelle RNA recognition motif-containing protein 5 (ORRM5) fused to the C-terminal half of GFP (protein, UniProt Q9SVM8 35-158) TKLFIGGLSWGTDDASLRDAFAHFGDVVDAKVIVDRETGRSRGFGFVNFNDEGAATAAISEMDGKELNGRHIRVNPANDRPSAPRAYGGGGGYSGGGGGYGGGGGGYGGGGGGYGGGGDGGGGF |
